Laboratory results published in a protein production outcome set (Wang et al. 2014).

Test: label from the status in PepcDB records

Q: With “MEEPGAQCAPPPPAGSETWVPQANLSSAPSQNCSAKDYIYQDSISLPWKVLLVMLLALITLATTLSNAFVIATVYRTRKLHTPANYLIASLAVTDLLVSILVMPISTMYTVTGRWTLGQVVCDFWLSSDITCCTASILHLCVIALDRYWAITDAVEYSAKRTPKRAAVMIALVWVFSISISLPPFFWRQAKAEEEVSECVVNTDHILYTVYSTVGAFYFPTLLLIALYGRIYVEARSRILKQTPNRTGKRLTRAQLITDSPGSTSSVTSINSRVPDVPSESGSPVYVNQVKVRVSDALLEKKKLMAARERKATKTLGIILGAFIVCWLPFFIISLVMPICKDACWFHLAIFDFFTWLGYLNSLINPIIYTMSNEDFKQAFHKLIRFKCTS” as the sequence, how does the protein production read?
A: failed

Q: For “MPFPNCSAPSTVVATAVGVLLGLECGLGLLGNAVALWTFLFRVRVWKPYAVYLLNLALADLLLAACLPFLAAFYLSLQAWHLGRVGCWALHFLLDLSRSVGMAFLAAVALDRYLRVVHPRLKVNLLSPQAALGVSGLVWLLMVALTCPGLLISEAAQNSTRCHSFYSRADGSFSIIWQEALSCLQFVLPFGLIVFCNAGIIRALQKRLREPEKQPKLQRAQALVTLVVVLFALCFLPCFLARVLMHIFQNLGSCRALCAVAHTSDVTGSLTYLHSVLNPVVYCFSSPTFRSSYRRVFHTLRGKGQAAEPPDFNPRDSYS”, which protein production is on record?
A: failed

Q: Which protein production does the source give for “MSIQKTYLEGDFVFPVSSSSFLRTLLEPQLGSALLTAMNASCCLPSVQPTLPNGSEHLQAPFFSNQSSSAFCEQVFIKPEVFLSLGIVSLLENILVILAVVRNGNLHSPMYFFLCSLAVADMLVSVSNALETIMIAIVHSDYLTFEDQFIQHMDNIFDSMICISLVASICNLLAIAVDRYVTIFYALRYHSIMTVRKALTLIVAIWVCCGVCGVVFIVYSESKMVIVCLITMFFAMMLLMGTLYVHMFLFARLHVKRIAALPPADGVAPQQHSCMKGAVTITILLGVFIFCWAPFFLHLVLIITCPTNPYCICYTAHFNTYLVLIMCNSVIDPLIYAFRSLELRNTFREILCGCNGMNLG” here?
A: failed

Q: Which protein production does the source give for “MSLPNSSCLLEDKMCEGNKTTMASPQLMPLVVVLSTICLVTVGLNLLVLYAVRSERKLHTVGNLYIVSLSVADLIVGAVVMPMNILYLLMSKWSLGRPLCLFWLSMDYVASTASIFSVFILCIDRYRSVQQPLRYLKYRTKTRASATILGAWFLSFLWVIPILGWNHFMQQTSVRREDKCETDFYDVTWFKVMTAIINFYLPTLLMLWFYAKIYKAVRQHCQHRELINRSLPSFSEIKLRPENPKGDAKKPGKESPWEVLKRKPKDAGGGSVLKSPSQTPKEMKSPVVFSQEDDREVDKLYCFPLDIEHMQAAAEGSSRDYVAVNRSHGQLKTDEQGLNTHGASEISEDQMLGDSQSFSRTDSDTTTETAPGKGKLRSGSNTGLDYIKFTWKRLRSHSRQYVSGLHMNRERKAAKQLGFIMAAFILCWIPYFIFFMVIAFCKNCCNEHLHMFTIWLGYINSTLNPLIYPLCNENFKKTFKRILHIRS” here?
A: failed

Q: Which protein production does the source give for “MSLSSTVSTLYGEVEPSLLEIAKQIKLLICDVDGVFSDGLIYMGNQGEELKTFHTRDGYGVKALMNAGIEIAIITGRRSQIVENRMKALGISLIYQGQDDKVQAYYDICQKLAIAPEQTGYIGDDLIDWPVMEKVALRVCVADGHPLLAQRANYVTHIKGGHGAVREVCDLILQARNELDVHKGLSLEGHHHHHH” here?
A: not failed
